± gives the standard deviation of the averaged measurements. Laboratory Escherichia coli strains with one amino-acid change in an essential protein, pooled on minimal glucose agar with carbenicillin or gentamicin at twice the control MIC (plus kanamycin and chloramphenicol for the plasmids), 48 h. Fold change of barcode share against drug-free plates; higher = less susceptible. Active = above 20 in both replicates (the paper's putatively resistant). '<' = one read or none on drug, '>' = one read or none on a drug-free plate. Shares are relative, so most strains fall below 1 when a few take over. Listed are strains with at least 15 reads on both drug-free plates, and hits; most hits rest on fewer reference reads. Replicate rank correlation about 0.5. Edits are read from barcodes.

14 proteins from the supplement of paper PMC11876631 can be followed below.

Sequences and labels used below:
B1: folE M99A (protein)
chain: MPSLSKEAALVHEALVARGLETPLRPPVHEMDNETRKSLIAGHMTEIMQLLNLDLADDSLMETPHRIAKMYVDEIFSGLDYANFPKITLIENKMKVDEAVTVRDITLTSTCEHHFVTIDGKATVAYIPKDSVIGLSKINRIVQFFAQRPQVQERLTQQILIALQTLLGTNNVAVSIDAVHYCVKARGIRDATSATTTTSLGGLFKSSQNTRHEFLRAVRHHN
B2: folE L107A (protein)
chain: MPSLSKEAALVHEALVARGLETPLRPPVHEMDNETRKSLIAGHMTEIMQLLNLDLADDSLMETPHRIAKMYVDEIFSGLDYANFPKITLIENKMKVDEMVTVRDITATSTCEHHFVTIDGKATVAYIPKDSVIGLSKINRIVQFFAQRPQVQERLTQQILIALQTLLGTNNVAVSIDAVHYCVKARGIRDATSATTTTSLGGLFKSSQNTRHEFLRAVRHHN
B3: folE I105Q (protein)
chain: MPSLSKEAALVHEALVARGLETPLRPPVHEMDNETRKSLIAGHMTEIMQLLNLDLADDSLMETPHRIAKMYVDEIFSGLDYANFPKITLIENKMKVDEMVTVRDQTLTSTCEHHFVTIDGKATVAYIPKDSVIGLSKINRIVQFFAQRPQVQERLTQQILIALQTLLGTNNVAVSIDAVHYCVKARGIRDATSATTTTSLGGLFKSSQNTRHEFLRAVRHHN
B4: folE M99Q (protein)
chain: MPSLSKEAALVHEALVARGLETPLRPPVHEMDNETRKSLIAGHMTEIMQLLNLDLADDSLMETPHRIAKMYVDEIFSGLDYANFPKITLIENKMKVDEQVTVRDITLTSTCEHHFVTIDGKATVAYIPKDSVIGLSKINRIVQFFAQRPQVQERLTQQILIALQTLLGTNNVAVSIDAVHYCVKARGIRDATSATTTTSLGGLFKSSQNTRHEFLRAVRHHN
B5: folE I105D (protein)
chain: MPSLSKEAALVHEALVARGLETPLRPPVHEMDNETRKSLIAGHMTEIMQLLNLDLADDSLMETPHRIAKMYVDEIFSGLDYANFPKITLIENKMKVDEMVTVRDDTLTSTCEHHFVTIDGKATVAYIPKDSVIGLSKINRIVQFFAQRPQVQERLTQQILIALQTLLGTNNVAVSIDAVHYCVKARGIRDATSATTTTSLGGLFKSSQNTRHEFLRAVRHHN
B6: folE I105A (protein)
chain: MPSLSKEAALVHEALVARGLETPLRPPVHEMDNETRKSLIAGHMTEIMQLLNLDLADDSLMETPHRIAKMYVDEIFSGLDYANFPKITLIENKMKVDEMVTVRDATLTSTCEHHFVTIDGKATVAYIPKDSVIGLSKINRIVQFFAQRPQVQERLTQQILIALQTLLGTNNVAVSIDAVHYCVKARGIRDATSATTTTSLGGLFKSSQNTRHEFLRAVRHHN
B7: ffh V186W (protein)
chain: MFDNLTDRLSRTLRNISGRGRLTEDNVKDTLREVRMALLEADVALPVVREFINRVKEKAVGHEVNKSLTPGQEFVKIVRNELVAAMGEENQTLNLAAQPPAVVLMAGLQGAGKTTSVGKLGKFLREKHKKKVLVVSADVYRPAAIKQLETLAEQVGVDFFPSDVGQKPVDIVNAALKEAKLKFYDWLLVDTAGRLHVDEAMMDEIKQVHASINPVETLFVVDAMTGQDAANTAKAFNEALPLTGVVLTKVDGDARGGAALSIRHITGKPIKFLGVGEKTEALEPFHPDRIASRILGMGDVLSLIEDIESKVDRAQAEKLASKLKKGDGFDLNDFLEQLRQMKNMGGMASLMGKLPGMGQIPDNVKSQMDDKVLVRMEAIINSMTMKERAKPEIIKGSRKRRIAAGCGMQVQDVNRLLKQFDDMQRMMKKMKKGGMAKMMRSMKGMMPPGFPGR
B8: ffh V186D (protein)
chain: MFDNLTDRLSRTLRNISGRGRLTEDNVKDTLREVRMALLEADVALPVVREFINRVKEKAVGHEVNKSLTPGQEFVKIVRNELVAAMGEENQTLNLAAQPPAVVLMAGLQGAGKTTSVGKLGKFLREKHKKKVLVVSADVYRPAAIKQLETLAEQVGVDFFPSDVGQKPVDIVNAALKEAKLKFYDDLLVDTAGRLHVDEAMMDEIKQVHASINPVETLFVVDAMTGQDAANTAKAFNEALPLTGVVLTKVDGDARGGAALSIRHITGKPIKFLGVGEKTEALEPFHPDRIASRILGMGDVLSLIEDIESKVDRAQAEKLASKLKKGDGFDLNDFLEQLRQMKNMGGMASLMGKLPGMGQIPDNVKSQMDDKVLVRMEAIINSMTMKERAKPEIIKGSRKRRIAAGCGMQVQDVNRLLKQFDDMQRMMKKMKKGGMAKMMRSMKGMMPPGFPGR
B9: ffh V186Q (protein)
chain: MFDNLTDRLSRTLRNISGRGRLTEDNVKDTLREVRMALLEADVALPVVREFINRVKEKAVGHEVNKSLTPGQEFVKIVRNELVAAMGEENQTLNLAAQPPAVVLMAGLQGAGKTTSVGKLGKFLREKHKKKVLVVSADVYRPAAIKQLETLAEQVGVDFFPSDVGQKPVDIVNAALKEAKLKFYDQLLVDTAGRLHVDEAMMDEIKQVHASINPVETLFVVDAMTGQDAANTAKAFNEALPLTGVVLTKVDGDARGGAALSIRHITGKPIKFLGVGEKTEALEPFHPDRIASRILGMGDVLSLIEDIESKVDRAQAEKLASKLKKGDGFDLNDFLEQLRQMKNMGGMASLMGKLPGMGQIPDNVKSQMDDKVLVRMEAIINSMTMKERAKPEIIKGSRKRRIAAGCGMQVQDVNRLLKQFDDMQRMMKKMKKGGMAKMMRSMKGMMPPGFPGR
B10: ffh V135A (protein)
chain: MFDNLTDRLSRTLRNISGRGRLTEDNVKDTLREVRMALLEADVALPVVREFINRVKEKAVGHEVNKSLTPGQEFVKIVRNELVAAMGEENQTLNLAAQPPAVVLMAGLQGAGKTTSVGKLGKFLREKHKKKVLVASADVYRPAAIKQLETLAEQVGVDFFPSDVGQKPVDIVNAALKEAKLKFYDVLLVDTAGRLHVDEAMMDEIKQVHASINPVETLFVVDAMTGQDAANTAKAFNEALPLTGVVLTKVDGDARGGAALSIRHITGKPIKFLGVGEKTEALEPFHPDRIASRILGMGDVLSLIEDIESKVDRAQAEKLASKLKKGDGFDLNDFLEQLRQMKNMGGMASLMGKLPGMGQIPDNVKSQMDDKVLVRMEAIINSMTMKERAKPEIIKGSRKRRIAAGCGMQVQDVNRLLKQFDDMQRMMKKMKKGGMAKMMRSMKGMMPPGFPGR
B11: ffh V78A (protein)
chain: MFDNLTDRLSRTLRNISGRGRLTEDNVKDTLREVRMALLEADVALPVVREFINRVKEKAVGHEVNKSLTPGQEFVKIARNELVAAMGEENQTLNLAAQPPAVVLMAGLQGAGKTTSVGKLGKFLREKHKKKVLVVSADVYRPAAIKQLETLAEQVGVDFFPSDVGQKPVDIVNAALKEAKLKFYDVLLVDTAGRLHVDEAMMDEIKQVHASINPVETLFVVDAMTGQDAANTAKAFNEALPLTGVVLTKVDGDARGGAALSIRHITGKPIKFLGVGEKTEALEPFHPDRIASRILGMGDVLSLIEDIESKVDRAQAEKLASKLKKGDGFDLNDFLEQLRQMKNMGGMASLMGKLPGMGQIPDNVKSQMDDKVLVRMEAIINSMTMKERAKPEIIKGSRKRRIAAGCGMQVQDVNRLLKQFDDMQRMMKKMKKGGMAKMMRSMKGMMPPGFPGR
B12: ffh V78W (protein)
chain: MFDNLTDRLSRTLRNISGRGRLTEDNVKDTLREVRMALLEADVALPVVREFINRVKEKAVGHEVNKSLTPGQEFVKIWRNELVAAMGEENQTLNLAAQPPAVVLMAGLQGAGKTTSVGKLGKFLREKHKKKVLVVSADVYRPAAIKQLETLAEQVGVDFFPSDVGQKPVDIVNAALKEAKLKFYDVLLVDTAGRLHVDEAMMDEIKQVHASINPVETLFVVDAMTGQDAANTAKAFNEALPLTGVVLTKVDGDARGGAALSIRHITGKPIKFLGVGEKTEALEPFHPDRIASRILGMGDVLSLIEDIESKVDRAQAEKLASKLKKGDGFDLNDFLEQLRQMKNMGGMASLMGKLPGMGQIPDNVKSQMDDKVLVRMEAIINSMTMKERAKPEIIKGSRKRRIAAGCGMQVQDVNRLLKQFDDMQRMMKKMKKGGMAKMMRSMKGMMPPGFPGR
B13: accA I200A (protein)
chain: MSLNFLDFEQPIAELEAKIDSLTAVSRQDEKLDINIDEEVHRLREKSVELTRKIFADLGAWQIAQLARHPQRPYTLDYVRLAFDEFDELAGDRAYADDKAIVGGIARLDGRPVMIIGHQKGRETKEKIRRNFGMPAPEGYRKALRLMQMAERFKMPIITFIDTPGAYPGVGAEERGQSEAIARNLREMSRLGVPVVCTVAGEGGSGGALAIGVGDKVNMLQYSTYSVISPEGCASILWKSADKAPLAAEAMGIIAPRLKELKLIDSIIPEPLGGAHRNPEAMAASLKAQLLADLADLDVLSTEDLKNRRYQRLMSYGYA
B14: accA I200Q (protein)
chain: MSLNFLDFEQPIAELEAKIDSLTAVSRQDEKLDINIDEEVHRLREKSVELTRKIFADLGAWQIAQLARHPQRPYTLDYVRLAFDEFDELAGDRAYADDKAIVGGIARLDGRPVMIIGHQKGRETKEKIRRNFGMPAPEGYRKALRLMQMAERFKMPIITFIDTPGAYPGVGAEERGQSEAIARNLREMSRLGVPVVCTVQGEGGSGGALAIGVGDKVNMLQYSTYSVISPEGCASILWKSADKAPLAAEAMGIIAPRLKELKLIDSIIPEPLGGAHRNPEAMAASLKAQLLADLADLDVLSTEDLKNRRYQRLMSYGYA

The target of the first data set is Escherichia coli (laboratory strain). The experiment in a line: barcode share on antibiotic plates over drug-free plates; higher = less susceptible. To be noted: antibiotic: carbenicillin; 2× MIC (3.1 µg/mL). The procedure:
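A pool of E. coli strains, each edited to carry one amino-acid change in an essential protein, was grown for 48 h on minimal glucose agar with or without antibiotic; strain barcodes were sequenced; mean of two replicates.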
Take B1: the “fold change of barcode share” value was found to be 0.332 ± 0.067.
Consider B2, for which the “fold change of barcode share” value worked out at 0.357 ± 0.087.
For B3, the “fold change of barcode share” value was 0.324 ± 0.056.
In the case of B4, the “fold change of barcode share” value is 0.178 ± 0.14.
As to B5, the “fold change of barcode share” value worked out at 0.471 ± 0.18.
For the protein B6, the “fold change of barcode share” value was determined as 0.25 ± 0.03.
Same read-out and setting: in the case of B7 it was 0.335 ± 0.14; in that of B8, 0.339 ± 0.16; in that of B9, 0.157 ± 0.054.
For the protein B10, the “fold change of barcode share” value came to 0.373 ± 0.22.
On to B11, for which the “fold change of barcode share” value was 0.315 ± 0.018.
On the same count and under the same terms, in the case of B12 it was 0.234 ± 0.17; in that of B13, 0.244 ± 0.0078; in that of B14, 0.276 ± 0.12.

The data set is the same for the next values; noted with them: antibiotic: gentamicin; 2× MIC (MIC 0.45 µg/mL).
Take B2: the “fold change of barcode share” value is under 0.00554.
Same read-out and setting: in the case of B3 it was 0.0201 ± 0.0027.
For the protein B4, the “fold change of barcode share” value is under 0.014.
With B5, the “fold change of barcode share” value was under 0.0191.
With B7, the “fold change of barcode share” value was under 0.00553.
For the protein B8, the “fold change of barcode share” value was under 0.00615.
On to B9, for which the “fold change of barcode share” value was under 0.00845.
Still for that read-out and setting: in the case of B10 it was under 0.00656; in that of B11, 0.0212 ± 0.014.
Turning to B12, the “fold change of barcode share” value was under 0.00992.
On the same count and under the same terms, in the case of B13 it was under 0.0071; in that of B14, under 0.0138.
